Experimental data: the supplement of paper PMC4967469
pIC50: −log10 of the molar value. The IC50 comes from the fitted curve, where viability falls to half of the control; a fit beyond the top or the lowest dose is shown as a bound at that dose. AUC sums up the same curve from the lowest dose to the 256-fold higher top dose; the more sensitive the line, the further below 1. For some of these results: Where the top dose is marked as inferred, it was derived from the fitted curves, not read from the paper. For some of these results: Where an entry number is given, a second screen of the drug exists; the two often differ.

How the values were obtained:
Test in all cases: Viability of human cancer cell lines after 72 h of drug (GDSC screen)
AUY922 = compound: CCNC(=O)c1noc(-c2cc(C(C)C)c(O)cc2O)c1-c1ccc(CN2CCOCC2)cc1 [AUY922]; conditions: top dose 0.256 µM; top dose inferred
Procedure: (§1)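 Human cancer cell lines in 384-well plates, medium with 10% serum, drug for 72 h over a 256-fold dose range (nine 2-fold or five 4-fold steps up to the top dose). Adherent lines were fixed and stained with the nucleic acid dye Syto60, suspension lines read with resazurin; signal relative to control wells, capped at 0 and 100%. One two-parameter sigmoid per drug and line, fitted in a mixed model over all curves with the slope shared within a line.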

LFM-A13 = compound: C/C(O)=C(\C#N)C(=O)Nc1cc(Br)ccc1Br [LFM-A13]; conditions: top dose 16 µM; top dose inferred
Procedure: as §1

KIN001-270 = compound: Cc1ccc(Nc2cc(-c3cccc(N4C(=O)c5ccccc5C4=O)c3)ncn2)cc1NS(C)(=O)=O [KIN001-270]; conditions: top dose 20 µM; top dose inferred
Procedure: as §1

Gemcitabine = compound: Nc1ccn([C@@H]2O[C@H](CO)[C@@H](O)C2(F)F)c(=O)n1 [Gemcitabine]; conditions: top dose 1.024 µM
Procedure: as §1

T0901317 = compound: O=S(=O)(c1ccccc1)N(CC(F)(F)F)c1ccc(C(O)(C(F)(F)F)C(F)(F)F)cc1 [T0901317]; conditions: top dose 10.24 µM; top dose inferred
Procedure: as §1

MP470 = compound: S=C(NCc1ccc2c(c1)OCO2)N1CCN(c2ncnc3c2oc2ccccc23)CC1 [MP470]; conditions: top dose 20 µM; top dose inferred
Procedure: as §1

TW-37 = compound: CC(C)c1ccccc1Cc1cc(C(=O)Nc2ccc(S(=O)(=O)c3ccccc3C(C)(C)C)cc2)c(O)c(O)c1O [TW-37]; conditions: top dose 5 µM
Procedure: as §1

Bicalutamide = compound: CC(O)(CS(=O)(=O)c1ccc(F)cc1)C(=O)Nc1ccc(C#N)c(C(F)(F)F)c1 [Bicalutamide]; conditions: top dose inferred
Procedure: as §1

[1] = top dose 1.024 µM, screen: GDSC drug entry 150
[2] = top dose 10 µM, screen: GDSC drug entry 1502

Row | Cell Line | AUC (AUY922) | pIC50 (AUY922) | AUC (LFM-A13) | pIC50 (LFM-A13) | AUC (KIN001-270) | pIC50 (KIN001-270) | AUC (Gemcitabine) | pIC50 (Gemcitabine) | AUC (T0901317) | pIC50 (T0901317) | AUC (MP470) | pIC50 (MP470) | AUC (TW-37) | pIC50 (TW-37) | AUC (Bicalutamide; [1]) | pIC50 (Bicalutamide; [1]) | AUC (Bicalutamide; [2]) | pIC50 (Bicalutamide; [2])
1 | SKN-3 (head and neck, adherent) | 0.892 | < 6.59 | 0.973 | < 4.80 | 0.922 | < 4.70 | 0.964 | < 5.99 | 0.971 | < 4.99 | 0.938 | < 4.70 | 0.546 | 6.37 | 0.983 | < 5.99 | 0.981 | < 5.00
2 | NCI-H650 (lung adenocarcinoma, adherent) | 0.541 | 7.68 | 0.984 | < 4.80 | 0.977 | < 4.70 | 0.669 | 6.70 | 0.986 | < 4.99 | 0.96 | < 4.70 | 0.617 | 6.17 | 0.986 | < 5.99 | 0.984 | < 5.00
3 | NCI-H1703 (lung adenocarcinoma, adherent) | 0.726 | 7.09 | 0.975 | < 4.80 | 0.981 | < 4.70 | 0.34 | 7.68 | 0.925 | < 4.99 | 0.866 | < 4.70 | 0.438 | 6.69 | 0.979 | < 5.99 | 0.947 | < 5.00
4 | MKN1 (stomach, adherent) | 0.645 | 7.39 | 0.982 | < 4.80 | 0.977 | < 4.70 | 0.416 | 7.43 | 0.975 | < 4.99 | 0.943 | < 4.70 | 0.587 | 6.26 | 0.986 | < 5.99 | 0.973 | < 5.00
5 | SW156 (kidney, adherent) | 0.922 | < 6.59 | 0.982 | < 4.80 | 0.972 | < 4.70 | 0.344 | 7.65 | 0.986 | < 4.99 | 0.919 | < 4.70 | 0.514 | 6.46 | 0.984 | < 5.99 | 0.976 | < 5.00
6 | MDA-MB-436 (breast, adherent) | 0.786 | 6.85 | 0.957 | < 4.80 | 0.946 | < 4.70 | 0.813 | 6.13 | 0.98 | < 4.99 | 0.946 | < 4.70 | 0.548 | 6.36 | 0.983 | < 5.99 | 0.959 | < 5.00
7 | NCI-H1915 (large cell lung carcinoma, adherent) | 0.629 | 7.44 | 0.978 | < 4.80 | 0.968 | < 4.70 | 0.923 | < 5.99 | 0.984 | < 4.99 | 0.982 | < 4.70 | 0.399 | 6.79 | 0.988 | < 5.99 | 0.986 | < 5.00
8 | H2818 (mesothelioma, adherent) | 0.989 | < 6.59 | 0.988 | < 4.80 | 0.983 | < 4.70 | 0.987 | < 5.99 | 0.988 | < 4.99 | 0.951 | < 4.70 | 0.676 | 6.01 | 0.986 | < 5.99 | 0.966 | < 5.00
9 | T47D (breast, adherent) | 0.802 | 6.66 | 0.959 | < 4.80 | 0.952 | < 4.70 | 0.875 | < 5.99 | 0.954 | < 4.99 | 0.923 | < 4.70 | 0.608 | 6.14 | 0.977 | < 5.99 | 0.927 | < 5.00
10 | H2803 (mesothelioma, adherent) | 0.826 | 6.72 | 0.979 | < 4.80 | 0.964 | < 4.70 | 0.595 | 6.91 | 0.985 | < 4.99 | 0.984 | < 4.70 | 0.622 | 6.14 | 0.985 | < 5.99 | – | –
11 | NCI-H2030 (lung adenocarcinoma, adherent) | 0.427 | 8.01 | 0.947 | < 4.80 | 0.96 | < 4.70 | 0.408 | 7.46 | 0.974 | < 4.99 | 0.969 | < 4.70 | 0.688 | 5.94 | 0.983 | < 5.99 | 0.979 | < 5.00
12 | HCC-44 (lung adenocarcinoma, adherent) | 0.39 | 8.10 | 0.945 | < 4.80 | 0.959 | < 4.70 | 0.259 | 7.88 | 0.984 | < 4.99 | 0.955 | < 4.70 | 0.597 | 6.24 | 0.975 | < 5.99 | 0.983 | < 5.00
13 | WM-115 (melanoma, adherent) | 0.877 | < 6.59 | 0.971 | < 4.80 | 0.97 | < 4.70 | 0.982 | < 5.99 | 0.955 | < 4.99 | 0.847 | 4.70 | 0.664 | 6.00 | 0.98 | < 5.99 | 0.978 | < 5.00
14 | ML-1 (thyroid, adherent) | 0.469 | 7.89 | 0.884 | < 4.80 | 0.984 | < 4.70 | 0.191 | 8.20 | 0.984 | < 4.99 | 0.954 | < 4.70 | 0.782 | 5.61 | 0.984 | < 5.99 | 0.965 | < 5.00
15 | SK-CO-1 (large intestine, adherent) | 0.764 | 7.06 | 0.964 | < 4.80 | 0.986 | < 4.70 | 0.428 | 7.39 | 0.988 | < 4.99 | 0.944 | < 4.70 | 0.563 | 6.34 | 0.978 | < 5.99 | 0.977 | < 5.00
